The source of these data is PubChem BioAssay AID330 (DTP/NCI, 2004).

Toxic doses and inconclusive results are not listed. Some entries of the source have several records that differ or are many. Only these are listed. There may be further records. Values that stand side by side are repeats across runs, samples, wells, individuals or studies.

The experiment relates to P388 leukemia ip, CD2F1 mice, survival T/C. In words: NCI In Vivo Anticancer Drug Screen. Data for tumor model P388 Leukemia (intraperitoneal) in CD2F1 (CDF1) mice. Particulars: endpoint: median survival time, higher = longer survival.
Setting [1] is: dose: 6.25 mg/kg/injection, schedule: Q01DX009 (ip), vehicle: water.

`CC(=O)OCN1C(=O)C2C3C=CC(C2C1=O)C1C2C(=O)N(COC(C)=O)C(=O)C2C31` (stereo not drawn): the T/C (dose: 100.0 mg/kg/injection, schedule: Q01DX009 (ip), vehicle: saline with Tween-80) was 118 % of control and 155 % of control.
`C=COC(=O)N[C@H]1CCc2cc(OC)c(OC)c(OC)c2-c2ccc(SC)c(=O)cc21`: under “dose: 3.0 mg/kg/injection, schedule: Q01DX009 (ip), vehicle: Klucel (hydroxypropylcellulose) (HPC)”, the T/C was 97 % of control and 152 % of control.
`COc1cccc2c1C(=O)c1c(O)c3c(c(O)c1C2=O)C[C@@](O)(C(=O)COC(=O)c1cccnc1)C[C@@H]3OC1CC(N)C(O)C(C)O1` (stereo partly drawn): the T/C (dose: 16.0 mg/kg/injection, schedule: Q04DX003 (ip), vehicle: saline) was 92 % of control and 163 % of control.
On to `O=c1n[n+]([O-])ccn1C1OC(CO)C(O)C1O` (stereo not drawn), for which the T/C (dose: 400.0 mg/kg/injection, schedule: Q01DX009 (ip), vehicle: saline) is recorded as 90 % of control, 150 % of control, 165 % of control.
On to `O=C1C=C(N2CC2)c2ccccc2C1=O`, for which the T/C (dose: 12.5 mg/kg/injection, schedule: Q01DX009 (ip), vehicle: saline with Tween-80) was 118 % of control and 172 % of control.
For the compound `COc1cccc2c1C(=O)c1c(O)c3c(c(O)c1C2=O)C[C@@](O)(/C(C)=N/NC(=O)c1ccccc1)C[C@@H]3OC1CC(N(C)C)C(O)C(C)O1` (stereo partly drawn), under setting [1], the T/C is recorded as 108 % of control, 110 % of control, 166 % of control.
With `Fc1ccccc1CSc1ncnc2nc[nH]c12`, the T/C (dose: 200.0 mg/kg/injection, schedule: Q04DX003 (ip), vehicle: saline with Tween-80) was 114 % of control and 150 % of control.
For `CSC1SCC2C(=O)N(C)C(C(C)C)C(=O)OCC(NC(=O)c3cnc4ccccc4n3)C(=O)NC(C)C(=O)N(C)C1C(=O)N(C)C(C(C)C)C(=O)OCC(NC(=O)c1cnc3ccccc3n1)C(=O)NC(C)C(=O)N2C` (stereo not drawn), the T/C is, setting by setting: (dose: 15.0 micrograms/kg/injection, schedule: Q01DX009 (ip), vehicle: saline with Tween-80) 112 % of control and 150 % of control; (dose: 30.0 micrograms/kg/injection, schedule: Q01DX009 (ip), vehicle: saline with Tween-80) 111 % of control and 168 % of control; (dose: 120.0 micrograms/kg/injection, schedule: Q01DX009 (ip), vehicle: saline with Tween-80) 123 % of control and 152 % of control.
Consider `O=C(Nc1ccc(CCC2=NCCCN2)cc1)c1ccc(C(=O)Nc2ccc(CCC3=NCCCN3)cc2)cc1`, for which the T/C (dose: 200.0 mg/kg/injection, schedule: Q01DX005 (ip), vehicle: saline with Tween-80) was 98 % of control and 161 % of control.
As for `COc1cc2c(c(OC)c1OC)-c1ccc(SC)c(=O)cc1[C@@H](NC(=O)Oc1ccccc1)CC2`, where the note is “dose: 10.0 mg/kg/injection, schedule: Q01DX009 (ip), vehicle: Klucel (hydroxypropylcellulose) (HPC)”, the T/C was 108 % of control and 161 % of control.
Take `[Na+]`: under “dose: 1.56 % in 0.5 ml injection vol, schedule: Q01DX009 (ip), vehicle: water”, the T/C was 101 % of control and 171 % of control.
For `O=c1[nH]c(=O)n(C2CC(O)C(CO)O2)cc1F` (stereo not drawn), the T/C is, setting by setting: (dose: 74.0 mg/kg/injection, schedule: Q01DX009 (ip), vehicle: saline) 120 % of control and 176 % of control; (dose: 300.0 mg/kg/injection, schedule: Q04DX003 (ip), vehicle: saline) 113 % of control and 175 % of control.
For `CCOC(=O)C(N)CSC(c1ccccc1)(c1ccccc1)c1ccccc1` (stereo not drawn), the T/C (dose: 100.0 mg/kg/injection, schedule: Q01DX009 (ip), vehicle: water) is 90 % of control and 196 % of control.
As for `CCCCCN(C)/N=N/c1nc[nH]c1C(N)=O`, where the note is “dose: 400.0 mg/kg/injection, schedule: Q04DX003 (ip), vehicle: saline with Tween-80”, the T/C was 113 % of control and 150 % of control.
For `COc1cccc2c1C(=O)c1c(O)c3c(c(O)c1C2=O)C[C@@](O)(C(C)=O)C[C@@H]3OC1CC(NCc2ccccc2)C(O)C(C)O1` (stereo partly drawn), under setting [1], the T/C was 91 % of control and 187 % of control.
